Measurements published in the supplement of paper PMC11417369.
± gives the standard deviation of the averaged measurements. This is one part of the list.

System: PfAP2-I AP2 domain 3 (GST-tagged)
Assay: gcPBM binding intensity (ln(normalized median fluorescence intensity)); higher = stronger DNA binding
In short: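 Binding intensity is the highest Masliner-normalised natural-log median intensity over replicate spots in either probe orientation. To obtain it, GST-tagged P. falciparum DNA-binding domains made in E. coli were incubated for 1 h on an Agilent 4 × 180k array of primer-extended double-stranded 36-bp intergenic genomic probes plus negative controls. Detection used Alexa488 anti-GST antibody with scanning at 488 nm.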

Row | Sequence | gcPBM binding intensity (ln)
1 | AATAATGTATAATGATGTACAAAAAAGGAAGACATA [XGTACX_site2474] | 8.23 ± 0.86
2 | ATATTTTGTAATATTTGTACATATATTATACATATA [XGTACX_site963] | 7.89 ± 0.34
3 | TTTTTTTTGCGTACAGTGCAAATTTATTTACTATTC | 9.76 ± 0.21
4 | TACATCGGTATATAAACACACAACAAAAATGCTTAC [CACACA_site5983] | 7.82 ± 0.77
5 | AAAATAATTAAAAAAAGTACTCGTAATATAAATATA [XGTACX_site4967] | 7.82 ± 0.35
6 | TTAAAAGATATTACATGTACATATTCAATATATGTA [XGTACX_site5895] | 7.62 ± 0.38
7 | ACAAATAAATAAAAATGTACAAATGAATACATCTTA [XGTACX_site3780] | 7.33 ± 0.39
8 | TTTTTTTAAAAAAACAAAAAAAAAAAAAATATAAAA [TGCATGCA_negctrl_site511] | 7.49 ± 0.55
9 | TATGTAAAAAGAGAAAAAAAAAAGAACGATAATTTC [CACACA_negctrl_site946] | 7.51 ± 0.79
10 | ATATAAGAATTTAAGAGTACATTCACTTCAAATTTA [XGTACX_site2115] | 7.58 ± 0.38
11 | AGGTGTATCATAAAATGTACATACATACATACATAA [XGTACX_site4479] | 7.94 ± 0.57
12 | TATTATTATTTTTTATGTACTAACGACAAAAATATT [XGTACX_site252] | 7.86 ± 0.32
13 | TTGTAATTCATTCAAATATAAAATAAATAAATATGA [CACACA_negctrl_site349] | 7.38 ± 0.5
14 | AAAATGTGCTTTTCAGTGCAATTTTTTTTGTAATAA [GTGCAC_site9566] | 9.04 ± 0.32
15 | TATTCTATAAATATATTTTTTTAATTTTTTATTTTA [CACACA_negctrl_site307] | 7.58 ± 0.28
16 | AAAAAAAAAAAAAAAGGTACAGTAAAAAATTCCTCT [XGTACX_site5947] | 8.62 ± 0.5
17 | AAATTTAATTTTATATCACACATTAAATTTTAATGG [CACACA_site4251] | 7.65 ± 0.58
18 | ATAACATAACATAATACACACATATAAAAAAGAAAT [CACACA_site3028] | 8.2 ± 0.58
19 | ATATAATATATTTTCACACATATTTTATGATGATAA [CACACA_site5614] | 7.62 ± 0.32
20 | TAATATATTGTAGATGCATGCATTAACTATTACAAA [TGCATGCA_site190] | 8.04 ± 0.52
21 | CGTATAAATAAATACACACACATATAAATATGTAAA [CACACA_site6236] | 7.59 ± 0.29
22 | TATCAATGGAAAATATATATTTGTATATATGTAATA [XGTACX_negctrl_site257] | 7.64 ± 0.7

Row | Sequence | gcPBM binding intensity (ln)
23 | GAAATTATTATATAAACACACATTTATTTTATTTTA [CACACA_site1957] | 7.58 ± 0.56
24 | GTATTATACCATAATGCATGTTAACTTCAAAAGAAA [TGCATGCA_site839] | 8.04 ± 0.42
25 | ATAAAAATTAAAGAATGTACACATATAATATATGTA [XGTACX_site8735] | 7.64 ± 0.26
26 | AAAAGTTATAGACACACACACATATAAATATAGATT [CACACA_site6617] | 7.67 ± 0.64
27 | TTGTTTCCTTAATATTCACACACATATATATAATAT [CACACA_site8553] | 8.05 ± 0.71
28 | ATAATCCTTAAACACACACACACACTAATAAATAAA [CACACA_site8052] | 8.02 ± 0.42
29 | TATAAATGTATACAAGTGCATATTATTCACACATAA | 9.6 ± 0.13
30 | TTTTAAAAAAATAAATAAATAGAAAAAAAAAATAAA [TGCATGCA_negctrl_site579] | 7.54 ± 0.38
31 | GGATATATTTTATGTACACACATATATAACGGATAT [CACACA_site4847] | 8.05 ± 0.35
32 | TATTATGACTTAAGTTGTACTGTTGAAAGAAGAAAA [XGTACX_site2985] | 7.88 ± 0.53
33 | AGCAACCCCCTAGCTACACACATATAGATATATATA [CACACA_site951] | 8.75 ± 0.45
34 | TAAAATTTTTTTGTTTGTACATATATATATATAATA [XGTACX_site5609] | 7.88 ± 0.5
35 | TATATATTATACACGTGTACACATTATAACAATATA [XGTACX_site7799] | 8.35 ± 0.45
36 | TTTCCCTTAAATTAATGTACATAAATTGAAAATACC [XGTACX_site1602] | 8.07 ± 0.45
37 | TTGCCCCAGGAGTTCACACACATAATAGATTGTCAC [CACACA_site726] | 7.79 ± 0.61
38 | AAAAAAATAAATAAATACATACATATATATATGTAT [GTGCAC_negctrl_site510] | 7.33 ± 0.51
39 | AAAAAAAAAAAACACACACACAAAAAAAAATATATA [CACACA_site1105] | 7.81 ± 0.17
40 | AAGCTACACATAGATTATTATTAATTTAATGTATAT [CACACA_negctrl_site548] | 7.22 ± 0.57
41 | TACGTGAAATTATATACACACATAAATATGTCTGTA [CACACA_site3122] | 7.43 ± 0.42
42 | AATTATTAGCGTGGTGTGCACAAAATTATGGACACA | 9.84 ± 0.2
43 | ACAAGCTTTCATAAGGTGCAATGATTTAACAAAAAA [GTGCAC_site9726] | 10.2 ± 0.16
44 | ACACATGACATCCGTTGTACAATCATCATAAAAATG [XGTACX_site5397] | 8.24 ± 0.72
